# Test results from the supplement of paper PMC11417369.
# The list shows a part of the results.
# System: PfSIP2 AP2 domain 1 (GST-tagged)
# Experiment: gcPBM binding intensity (ln(normalized median fluorescence intensity)); higher = stronger DNA binding
# Method in brief: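 GST-fused DNA-binding domains of P. falciparum, expressed in E. coli, were applied at about 25 μg on average for 1 h to an Agilent 4 × 180k array of primer-extended double-stranded 36-bp intergenic genomic probes and negative controls. Binding intensity is the highest Masliner-normalised natural-log median intensity across replicate spots of either probe orientation, measured with Alexa488 anti-GST antibody and a 488 nm scan.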
row,Sequence,gcPBM binding intensity (ln)
1,CATACATACATACATACACACATACAGATATATATA [CACACA_site4890],7.92
2,TCCTTATTACTTTTTTAAGTCGTAATGAAAGAAAAA [CACACA_negctrl_site1497],7.06
3,ATCTTAACTCTATGCACACATAAAAGTATATAAATA [CACACA_site2256],7.7
4,ATCATGTTATATACATGTACATATATATATATATAA [XGTACX_site609],7.55
5,ATCATCCAAGATCTTACACACATATTAAATAAATAA [CACACA_site1473],7.23
6,TTTTATTTTTTTAAATGTACACATATTAATGTAAGG [XGTACX_site319],7.19
7,TAAAACATAAGAGACACACACACATATATATATATA [CACACA_site3643],9.69
8,ATATTCTTTTTATGTGGTACTAATTTTTTTTTTTTA [XGTACX_site3791],6.96
9,TTTTTAAAACATCACTGTACCCGTTATGGTGAACAT [XGTACX_site3483],7.71
10,TTTTTAAATAATTGAAGTACACATTTCTCTAAGTTG [XGTACX_site2846],6.78
11,AGTAAAAGAAAGCACACACACATGTATATAGGTATG [CACACA_site7759],6.9
12,CATGTATTTTATATTACACACTAATATTATAGATAT [CACACA_site6819],7
13,TTTTTTTTTTTGTTTAAACACACGAGCTTTCTTCTT [CACACA_site4085],6.89
14,AAACATATAAACATATGTACATATAAACATATATAC [XGTACX_site5026],6.99
15,AGCATATTATCATATTGTACATATTATAATATATAT [XGTACX_site3907],7.27
16,ATATGTTTTGTTTACGTGCACTGCTTTGTTTATATA [GTGCAC_site9622],9.56
17,ATTTCTCAATCTTAATGTACAAAAAAAAGGAAAAAG [XGTACX_site1210],7.13
18,TAAAAATTTTAATAAACACACAATGAGATATTGAAT [CACACA_site5704],6.55
19,AGCAAATCAGATAGTAGTACATTTAAATTAGACTTT [XGTACX_site4172],6.62
20,TTTTTAATTATCTTTTCCCATGGTTTCTCCGTTTTT [XGTACX_negctrl_site39],6.97
21,CAAAATAAAAATAACACACACATTTATATATATACA [CACACA_site1190],6.94
22,AAAGAGAAATTTAAATGTACATTTGTTCTAAGTGTA [XGTACX_site3602],6.92
23,AATTATGAAAAATCAAGTACAAACAAAATCATAATT [XGTACX_site5665],7

row,Sequence,gcPBM binding intensity (ln)
1,AAAAGATATATTATATGTACTAATTATATGATAAAT [XGTACX_site4192],7.01
2,CATACACCCATACATACACACATACATATATATATA [CACACA_site8591],9.07
3,ATATAATGTTTCACATGTACAAACAACACAAAAAAA [XGTACX_site1899],7.16
4,TATTATATTCTGCTTACACACATATATATATATATA [CACACA_site3060],9.32
5,TTAAAAAAAGAAAAAAAAAAAAAAAAAAAAAAACAT [CACACA_negctrl_site475],6.86
6,TATAAAAATATTTCTACACACATTAATATTTATATA [CACACA_site6661],6.96
7,GTTCTAAATATTATTGCATGTTGCACGTTTCTCTGT [TGCATGCA_site159],7.65
8,GTGATAATTGCTTGGTGTACCCACATATATATATAT [XGTACX_site1636],9.03
9,AGTATACGCAAACACACACACACAAAAAAAAAAAAA [CACACA_site426],7.1
10,TATTATATTTATATTTGTACTTAAAATATTATACAC [XGTACX_site2881],7.14
11,AAATAAGAAAATCATAGTACATAGGAATAGAAGAAC [XGTACX_site3135],7.59
12,TACGTTCTGATATATACACACCTGGTATTAATTATG [CACACA_site7113],7.07
13,AGAAAAATTATATATACACACTTATATTTATATATA [CACACA_site5555],6.84
14,TTTTTTTTTTTAAATTGTACTTATTTTATATTATAT [XGTACX_site1077],7.24
15,AATGTCATGATACATACACACACATACACATACACA [CACACA_site8665],7.16
16,ATATCTTATTTTCCTTGTACTTATTTCATAATTACA [XGTACX_site3894],7.48
17,TATTAAATATTGTAATGTACATATATAATATAATAT [XGTACX_site1809],7.18
18,AATTTCCCATATTACACACATACTATGATATATAAA [CACACA_site3834],7.1
19,CAATAAACCATTTTTTGTACATAAAAATAGGTATTG [XGTACX_site1892],6.84
20,TAAATATGTATAAATTGTACAAAATATATGAATAGT [XGTACX_site5659],7.26
21,ATACCAAATGAATAATGTACATACGAACATACATAT [XGTACX_site1301],7.07
22,GTACATTGTAAGGATGGAAAAGCTAAACATTATAAT [XGTACX_negctrl_site339],6.99
23,ATATTTTTAACCAAGGACACAATTCTTGTATTGTTA [CACACA_negctrl_site1326],6.94

row,Sequence,gcPBM binding intensity (ln)
1,TAAGTCGTTATAAGCACACACATAAATAAAAATAAA [CACACA_site1574],7.09
2,AAGGGTTATAAAAATTGTACTTTTTTTATTTTTTTT [XGTACX_site1313],6.71
3,TCAATTTTTTAATGTTGTACTTTGTAAAAAAAAATA [XGTACX_site8481],7.11
4,ATATATTTATATAGGTGTACATATTTTGCTATTCAA [XGTACX_site5199],6.96
5,CAACCTCATAATATTTAACACACAAAATTATATGTA [CACACA_site8496],6.93
6,CATTTAGAATAAGGCACACATAAAGAACACTTTCCA [CACACA_site130],6.86
7,TATTCTGGTGTAAATGCACACAGAAGAAGAAAAAAA [CACACA_site9225],7.29
8,AAGGACACCTTCAAAACACACATACAAATAAATAGA [CACACA_site5771],7.16
9,TTCTGTTGGAATATATGTACATAATAAAAAAAAATA [XGTACX_site1741],7.31
10,TTTTTTTTTTTTGTAATACACACCACTATATGTTAT [CACACA_site1844],7.02
11,AATAAATAAAAAAAAAAAAAAAAAAAAAAAAAAAAA [XGTACX_negctrl_site343],7.05
12,TGTAGTCTGGAGAAAAGTACACAGTATCTGGTAACA [XGTACX_site2010],7.12
13,AGTTTTATAAAAATATGTACTTATATACACATGTAT [XGTACX_site4022],7.11
14,TATGGCAAAACATTCACACATATTTATATATGTGTA [CACACA_site5588],6.76
15,TTGATATGTACAGGCACACATAAATTTCACAAATAT [CACACA_site3999],7.04
16,CTTTAGTTTTTAATGTGTACTGAATTTGAATAGTAG [XGTACX_site7920],7.15
17,CGTATTATTTTATAAACACACAAGGGGGCATGTATA [CACACA_site6489],8.48
18,ATATAATTAAAAACATGTACATATATATATATATAT [XGTACX_site2882],9.07
19,CATAAATGTATATAAACATGCAAGGACAGACTTTTA [TGCATGCA_site900],6.86
20,TACATACAGATATATACACACATATATAATATATAT [CACACA_site4376],7.22
21,TACATACCTATATACACATGCATATTTACATATATT [TGCATGCA_site206],7.35
22,AAAATTAAATTATAAGCACACACATATATATATATA [CACACA_site9105],9.32
23,GTAAAAATACAAAAGGTGCTCAAACAATATAATACA,8.65

row,Sequence,gcPBM binding intensity (ln)
1,GAATATTAAACAAACACACACACATATATTTATATA [CACACA_site7563],7.05
2,AATGGATTGATAAGTGGTACACACATATATATTATA [XGTACX_site6086],6.98
3,TATATAATATATATGACACACATATTTATATAAATA [CACACA_site4054],7.12
4,TTTATATTATTTTAAACATGCACAAGTATAATTTAT [TGCATGCA_site233],7.84
5,TAAATTTAGAAACACACACACATATATATATATATA [CACACA_site847],9.59
6,TGTGGGAATAACCACACACACACACGCATATAAATA [CACACA_site7634],6.95
7,TGAACAGACGAGCACACACACACATATATATATATA [CACACA_site1019],9.49
8,TTTTCATATGAACAATGTACACATCGTATAATTCTG [XGTACX_site4756],6.93
9,CTCATAAAAATAACGTTAACATAAATTTATTGTGAT [XGTACX_negctrl_site169],7.04
10,TATATGTCAATATCTACACACATATATATAATTATT [CACACA_site3156],6.74
11,AATATAAAACATATCACACATATGTATTTATGTATA [CACACA_site5763],6.88
12,ATACATATTAAAGGATGTACACTTATATTTTTTAGA [XGTACX_site5406],6.92
13,AACATACACATATACACACACACATATATACATATA [CACACA_site1093],7.37
14,AAAAAAAAAAAAACATGTACATAAATGTAAAAAAGT [XGTACX_site8158],7.35
15,ACATATAAAATGTATACACACAAATATTACAGAGAT [CACACA_site4920],7.07
16,GCTTTTGAAAATATACACATGTTAGGAATACAGGGG [TGCATGCA_negctrl_site480],7.57
17,TATAATAACAATTTAGTGCATATAATAATATTTTAT,8.07
18,ATTTTTTTTCTTTTTTTTTTACATTTTTTTCTTTTT [CACACA_negctrl_site1289],6.75
19,AATTAAGTTAAACATTAAAAAAAACAAAAAATTAAA [CACACA_negctrl_site1333],6.73
20,ATATATACATATATATGTACGTATATTTTTATTTCT [XGTACX_site6198],7.48
